From patent US9234216B2, “Variant CBH I polypeptides” (BP Corporation North America Inc., priority 2011, dated 2016)

B1: SEQ ID NO: 11, 12: BD29555 CBH I variant: H497S (protein)
chain: MSALNSFNMYKSALILGSLLATAGAQQIGTYTAETHPSLSWSTCKSGGSCTTNSGAITLDANWRWVHGVNTSTNCYTGNTWNTAICDTDASCAQDCALDGADYSGTYGITTSGNSLRLNFVTGSNVGSRTYLMADNTHYQIFDLLNQEFTFTVDVSHLPCGLNGALYFVTMDADGGVSKYPNNKAGAQYGVGYCDSQCPRDLKFIAGQANVEGWTPSSNNANTGLGNHGACCAELDIWEANSISEALTPHPCDTPGLSVCTTDACGGTYSSDRYAGTCDPDGCDFNPYRLGVTDFYGSGKTVDTTKPITVVTQFVTDDGTSTGTLSEIRRYYVQNGVVIPQPSSKISGVSGNVINSDFCDAEISTFGETASFSKHGGLAKMGAGMEAGMVLVMSLWDDYSVNMLWLDSTYPTNATGTPGAARGSCPTTSGDPKTVESQSGSSYVTFSDIRVGPFNSTFSGGSSTGGSSTTTASGTTTTKASSTSTSSTSTGTGVAASWGQCGGQGWTGPTTCASGTTCTVVNPYYSQCL
B2: SEQ ID NO: 13, 14: BD29555 CBH I variant: T510K (protein)
chain: MSALNSFNMYKSALILGSLLATAGAQQIGTYTAETHPSLSWSTCKSGGSCTTNSGAITLDANWRWVHGVNTSTNCYTGNTWNTAICDTDASCAQDCALDGADYSGTYGITTSGNSLRLNFVTGSNVGSRTYLMADNTHYQIFDLLNQEFTFTVDVSHLPCGLNGALYFVTMDADGGVSKYPNNKAGAQYGVGYCDSQCPRDLKFIAGQANVEGWTPSSNNANTGLGNHGACCAELDIWEANSISEALTPHPCDTPGLSVCTTDACGGTYSSDRYAGTCDPDGCDFNPYRLGVTDFYGSGKTVDTTKPITVVTQFVTDDGTSTGTLSEIRRYYVQNGVVIPQPSSKISGVSGNVINSDFCDAEISTFGETASFSKHGGLAKMGAGMEAGMVLVMSLWDDYSVNMLWLDSTYPTNATGTPGAARGSCPTTSGDPKTVESQSGSSYVTFSDIRVGPFNSTFSGGSSTGGSSTTTASGTTTTKASSTSTSSTSTGTGVAAHWGQCGGQGWTGPKTCASGTTCTVVNPYYSQCL
B3: SEQ ID NO: 15, 16: BD29555 CBH I variant: D87L (protein)
chain: MSALNSFNMYKSALILGSLLATAGAQQIGTYTAETHPSLSWSTCKSGGSCTTNSGAITLDANWRWVHGVNTSTNCYTGNTWNTAICLTDASCAQDCALDGADYSGTYGITTSGNSLRLNFVTGSNVGSRTYLMADNTHYQIFDLLNQEFTFTVDVSHLPCGLNGALYFVTMDADGGVSKYPNNKAGAQYGVGYCDSQCPRDLKFIAGQANVEGWTPSSNNANTGLGNHGACCAELDIWEANSISEALTPHPCDTPGLSVCTTDACGGTYSSDRYAGTCDPDGCDFNPYRLGVTDFYGSGKTVDTTKPITVVTQFVTDDGTSTGTLSEIRRYYVQNGVVIPQPSSKISGVSGNVINSDFCDAEISTFGETASFSKHGGLAKMGAGMEAGMVLVMSLWDDYSVNMLWLDSTYPTNATGTPGAARGSCPTTSGDPKTVESQSGSSYVTFSDIRVGPFNSTFSGGSSTGGSSTTTASGTTTTKASSTSTSSTSTGTGVAAHWGQCGGQGWTGPTTCASGTTCTVVNPYYSQCL
B4: SEQ ID NO: 17, 18: BD29555 CBH I variant: G256I (protein)
chain: MSALNSFNMYKSALILGSLLATAGAQQIGTYTAETHPSLSWSTCKSGGSCTTNSGAITLDANWRWVHGVNTSTNCYTGNTWNTAICDTDASCAQDCALDGADYSGTYGITTSGNSLRLNFVTGSNVGSRTYLMADNTHYQIFDLLNQEFTFTVDVSHLPCGLNGALYFVTMDADGGVSKYPNNKAGAQYGVGYCDSQCPRDLKFIAGQANVEGWTPSSNNANTGLGNHGACCAELDIWEANSISEALTPHPCDTPILSVCTTDACGGTYSSDRYAGTCDPDGCDFNPYRLGVTDFYGSGKTVDTTKPITVVTQFVTDDGTSTGTLSEIRRYYVQNGVVIPQPSSKISGVSGNVINSDFCDAEISTFGETASFSKHGGLAKMGAGMEAGMVLVMSLWDDYSVNMLWLDSTYPTNATGTPGAARGSCPTTSGDPKTVESQSGSSYVTFSDIRVGPFNSTFSGGSSTGGSSTTTASGTTTTKASSTSTSSTSTGTGVAAHWGQCGGQGWTGPTTCASGTTCTVVNPYYSQCL

Test: Saccharification of pretreated bagasse by CBHI variants in a cocktail with CBHII and EG
Format: biochemical
Details: Table 2; for % improvement over WT @ 48 hr: 5% w/v pretreated bagasse, 35° C., pH5.2, CBHI 4 mg/g cellulose, (% conversion of variant − % conversion of wt)/% conversion of wt; for Dose Reduction: method not described
Experimental: CBHI variants shown in Tables 1 and 5 were assayed under the following conditions: • 5% w/v pretreated bagasse (62.07% cellulose) • 35° C., 300 rpm shaking with 2 BBs per r×n • pH5.2 • 1 mM Sodium Azide • 5 ml total volume • Enzyme Dosing Overview:
• Time point: T=0, 48 hours • Time point (for Point Mutant Recombinants): T=0, 72 hours • % improvement over wt=(% conversion of variant−% conversion of wt)/ • % conversion of wt Results of these assays are shown in Tables 2 and 6. • CBHI variants shown in Table 3 were assayed under the following conditions: […]

Row | Molecule | % improvement over WT @ 48 hr [%] | Dose Reduction [X]
1 | B1 | 0.0 | 0.94
2 | B2 | 0.0 | 0.87
3 | B3 | 1.0 | –
4 | B4 | 2.3 | 0.75
